# The supplement of paper PMC8728848
# This is one part of the list.
# Columns and labels:
# Assay in all cases: glycan array binding signal (z-score within array); higher = stronger binding
# Conditions in all cases: glycan notation: IUPAC condensed, linker removed
# [1] = target: Fuc(a1-2)Gal(b1-4)[Fuc(a1-3)]GlcNAc
# Outline: (§1)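 Columns mapping to the same glycan were averaged after glycan names were converted to IUPAC-condensed notation. The data come from 3228 arrays in the Consortium for Functional Glycomics database, limited to those with an available protein sequence. Binding is reported as a within-array Z-score averaged across arrays of one protein sequence and across linkers.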
# [2] = target: Fuc(a1-2)Gal(b1-4)[Fuc(a1-3)]GlcNAc(b1-2)Man(a1-3)[Fuc(a1-2)Gal(b1-4)[Fuc(a1-3)]GlcNAc(b1-2)Man(a1-6)]Man(b1-4)GlcNAc(b1-4)[Fuc(a1-6)]GlcNAc
# Outline: as §1
# [3] = target: Fuc(a1-2)Gal(b1-4)[Fuc(a1-3)]GlcNAc(b1-2)[Fuc(a1-2)Gal(b1-4)[Fuc(a1-3)]GlcNAc(b1-4)]Man(a1-3)[Fuc(a1-2)Gal(b1-4)[Fuc(a1-3)]GlcNAc(b1-2)Man(a1-6)]Man(b1-4)GlcNAc(b1-4)GlcNAc
# Outline: as §1
# [4] = target: Fuc(a1-2)Gal(b1-4)[Fuc(a1-3)]GlcNAc(b1-3)Gal(b1-4)[Fuc(a1-3)]GlcNAc
# Outline: as §1
# [5] = target: Fuc(a1-2)Gal(b1-4)[Fuc(a1-3)]GlcNAc(b1-3)Gal(b1-4)[Fuc(a1-3)]GlcNAc(b1-3)Gal(b1-4)[Fuc(a1-3)]GlcNAc
# Outline: as §1
# [6] = target: Fuc(a1-2)Gal(b1-4)[Fuc(a1-3)]GlcNAc(b1-3)GalNAc
# Outline: as §1
# [7] = target: Fuc(a1-2)Gal(b1-4)[Fuc(a1-3)]GlcNAc(b1-3)[Neu5Ac(a2-6)Gal(b1-4)GlcNAc(b1-6)]Gal(b1-4)Glc
# Outline: as §1
# [8] = target: Fuc(a1-2)Gal3S(b1-4)GlcNAc
# Outline: as §1
# [9] = target: Fuc(a1-2)Gal6S(b1-3)GlcNAc
# Outline: as §1
# [10] = target: Fuc(a1-2)Gal6S(b1-3)GlcNAc6S
# Outline: as §1
# Fuc(a1-2)Gal6S(b1-4)Glc = target: Fuc(a1-2)Gal6S(b1-4)Glc
# Outline: as §1
# [11] = target: Fuc(a1-2)Gal6S(b1-4)Glc6S
# Outline: as §1
# Fuc(a1-2)[Gal(a1-3)]Gal = target: Fuc(a1-2)[Gal(a1-3)]Gal
# Outline: as §1
# [12] = target: Fuc(a1-2)[Gal(a1-3)]Gal(b1-3)GalNAc
# Outline: as §1
# [13] = target: Fuc(a1-2)[Gal(a1-3)]Gal(b1-3)GalNAc(b1-3)Gal(a1-4)Gal(b1-4)Glc
# Outline: as §1
# [14] = target: Fuc(a1-2)[Gal(a1-3)]Gal(b1-3)GlcNAc
# Outline: as §1
# [15] = target: Fuc(a1-2)[Gal(a1-3)]Gal(b1-3)GlcNAc(b1-2)Man(a1-3)[Fuc(a1-2)[Gal(a1-3)]Gal(b1-3)GlcNAc(b1-2)Man(a1-6)]Man(b1-4)GlcNAc(b1-4)GlcNAc
# Outline: as §1
# [16] = target: Fuc(a1-2)[Gal(a1-3)]Gal(b1-3)GlcNAc(b1-2)Man(a1-3)[Fuc(a1-2)[Gal(a1-3)]Gal(b1-3)GlcNAc(b1-2)Man(a1-6)]Man(b1-4)GlcNAc(b1-4)[Fuc(a1-6)]GlcNAc
# Outline: as §1
# [17] = target: Fuc(a1-2)[Gal(a1-3)]Gal(b1-3)GlcNAc(b1-3)GalNAc
# Outline: as §1
# [18] = target: Fuc(a1-2)[Gal(a1-3)]Gal(b1-3)GlcNAc(b1-6)GalNAc
# Outline: as §1
# [19] = target: Fuc(a1-2)[Gal(a1-3)]Gal(b1-4)Glc
# Outline: as §1
# [20] = target: Fuc(a1-2)[Gal(a1-3)]Gal(b1-4)GlcNAc
# Outline: as §1
# [21] = target: Fuc(a1-2)[Gal(a1-3)]Gal(b1-4)GlcNAc(b1-2)Man
# Outline: as §1
# [22] = target: Fuc(a1-2)[Gal(a1-3)]Gal(b1-4)GlcNAc(b1-2)Man(a1-3)[Fuc(a1-2)[Gal(a1-3)]Gal(b1-4)GlcNAc(b1-2)Man(a1-6)]Man(b1-4)GlcNAc(b1-4)GlcNAc
# Outline: as §1
# [23] = target: Fuc(a1-2)[Gal(a1-3)]Gal(b1-4)GlcNAc(b1-2)Man(a1-3)[Fuc(a1-2)[Gal(a1-3)]Gal(b1-4)GlcNAc(b1-2)Man(a1-6)]Man(b1-4)GlcNAc(b1-4)[Fuc(a1-6)]GlcNAc
# Outline: as §1
# [24] = target: Fuc(a1-2)[Gal(a1-3)]Gal(b1-4)GlcNAc(b1-3)GalNAc
# Outline: as §1
# [25] = target: Fuc(a1-2)[Gal(a1-3)]Gal(b1-4)GlcNAc(b1-3)[Fuc(a1-2)[Gal(a1-3)]Gal(b1-4)GlcNAc(b1-6)]GalNAc
# Outline: as §1
# [26] = target: Fuc(a1-2)[Gal(a1-3)]Gal(b1-4)GlcNAc(b1-6)GalNAc
# Outline: as §1
# [27] = target: Fuc(a1-2)[Gal(a1-3)]Gal(b1-4)[Fuc(a1-3)]Glc
# Outline: as §1
# [28] = target: Fuc(a1-2)[Gal(a1-3)]Gal(b1-4)[Fuc(a1-3)]GlcNAc
# Outline: as §1
# [29] = target: Fuc(a1-2)[Gal(a1-3)]Gal(b1-4)[Fuc(a1-3)]GlcNAc(b1-3)GalNAc
# Outline: as §1
# [30] = target: Fuc(a1-2)[Gal(a1-4)]Gal(b1-4)GlcNAc
# Outline: as §1
# [31] = target: Fuc(a1-2)[GalNAc(a1-3)]Gal
# Outline: as §1
# [32] = target: Fuc(a1-2)[GalNAc(a1-3)]Gal(b1-3)GalNAc(a1-3)[Fuc(a1-2)]Gal(b1-4)GlcNAc
# Outline: as §1
# [33] = target: Fuc(a1-2)[GalNAc(a1-3)]Gal(b1-3)GalNAc(b1-3)Gal(a1-4)Gal(b1-4)Glc
# Outline: as §1
# [34] = target: Fuc(a1-2)[GalNAc(a1-3)]Gal(b1-3)GlcNAc
# Outline: as §1
# [35] = target: Fuc(a1-2)[GalNAc(a1-3)]Gal(b1-3)GlcNAc(b1-2)Man(a1-3)[Fuc(a1-2)[GalNAc(a1-3)]Gal(b1-3)GlcNAc(b1-2)Man(a1-6)]Man(b1-4)GlcNAc(b1-4)GlcNAc
# Outline: as §1
# [36] = target: Fuc(a1-2)[GalNAc(a1-3)]Gal(b1-3)GlcNAc(b1-2)Man(a1-3)[Fuc(a1-2)[GalNAc(a1-3)]Gal(b1-3)GlcNAc(b1-2)Man(a1-6)]Man(b1-4)GlcNAc(b1-4)[Fuc(a1-6)]GlcNAc
# Outline: as §1
binder,measurement,setting,value
"MGL (Homo sapiens), Q8IUN9 (protein) MTRTYENFQYLENKVKVQGFKNGPLPLQSLLQRLCSGPCHLLLSLGLGLLLLVIICVVGFQNSKFQRDLVTLRTDFSNFTSNTVAEIQALTSQGSSLEETIASLKAEVEGFKQERQAGVSELQEHTTQKAHLGHCPHCPSVCVPVHSEMLLRVQQLVQDLKKLTCQVATLNNNASTEGTCCPVNWVEHQDSCYWFSHSGMSWAEAEKYCQLKNAHLVVINSREEQNFVQKYLGSAYTWMGLSDPEGAWKWVDGTDYATGFQNWKPGQPDDWQGHGLGGGEDCAHFHPDGRWNDDVCQRPYHWVCEAGLGQTSQESH",glycan array binding signal (z-score),[1],-0.251
same,glycan array binding signal (z-score),[2],-0.229
same,glycan array binding signal (z-score),[3],-0.22
same,glycan array binding signal (z-score),[4],-0.232
same,glycan array binding signal (z-score),[5],-0.24
same,glycan array binding signal (z-score),[6],-0.24
same,glycan array binding signal (z-score),[7],-0.247
same,glycan array binding signal (z-score),[8],-0.244
same,glycan array binding signal (z-score),[9],-0.247
same,glycan array binding signal (z-score),[10],-0.172
same,glycan array binding signal (z-score),Fuc(a1-2)Gal6S(b1-4)Glc,-0.242
same,glycan array binding signal (z-score),[11],-0.254
same,glycan array binding signal (z-score),Fuc(a1-2)[Gal(a1-3)]Gal,-0.241
same,glycan array binding signal (z-score),[12],-0.24
same,glycan array binding signal (z-score),[13],-0.246
same,glycan array binding signal (z-score),[14],-0.238
same,glycan array binding signal (z-score),[15],-0.249
same,glycan array binding signal (z-score),[16],-0.248
same,glycan array binding signal (z-score),[17],-0.25
same,glycan array binding signal (z-score),[18],2.77
same,glycan array binding signal (z-score),[19],-0.237
same,glycan array binding signal (z-score),[20],-0.24
same,glycan array binding signal (z-score),[21],-0.248
same,glycan array binding signal (z-score),[22],-0.237
same,glycan array binding signal (z-score),[23],-0.239
same,glycan array binding signal (z-score),[24],-0.235
same,glycan array binding signal (z-score),[25],-0.231
same,glycan array binding signal (z-score),[26],-0.247
same,glycan array binding signal (z-score),[27],-0.248
same,glycan array binding signal (z-score),[28],-0.318
same,glycan array binding signal (z-score),[29],-0.239
same,glycan array binding signal (z-score),[30],-0.238
same,glycan array binding signal (z-score),[31],0.432
same,glycan array binding signal (z-score),[32],0.059
same,glycan array binding signal (z-score),[33],0.021
same,glycan array binding signal (z-score),[34],0.538
same,glycan array binding signal (z-score),[35],0.273
same,glycan array binding signal (z-score),[36],-0.194
